According to PMC4336329 (PLoS ONE, 2015):
Out of some 310,000 compounds screened, about 14,000 (4.5%) showed an effect of 50% or more. Effects have a minus sign here. Some of the results follow.

Biological target: human ether-à-go-go-related gene (hERG) potassium channel (human, UniProt Q12809)
Test: primary screen, population patch clamp on CHO cells stably expressing hERG
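Further: peak tail current of the secondary pulse compared with the same well before compound.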

human ether-à-go-go-related gene (hERG) potassium channel, sequence (Q12809 whole entry, looked up): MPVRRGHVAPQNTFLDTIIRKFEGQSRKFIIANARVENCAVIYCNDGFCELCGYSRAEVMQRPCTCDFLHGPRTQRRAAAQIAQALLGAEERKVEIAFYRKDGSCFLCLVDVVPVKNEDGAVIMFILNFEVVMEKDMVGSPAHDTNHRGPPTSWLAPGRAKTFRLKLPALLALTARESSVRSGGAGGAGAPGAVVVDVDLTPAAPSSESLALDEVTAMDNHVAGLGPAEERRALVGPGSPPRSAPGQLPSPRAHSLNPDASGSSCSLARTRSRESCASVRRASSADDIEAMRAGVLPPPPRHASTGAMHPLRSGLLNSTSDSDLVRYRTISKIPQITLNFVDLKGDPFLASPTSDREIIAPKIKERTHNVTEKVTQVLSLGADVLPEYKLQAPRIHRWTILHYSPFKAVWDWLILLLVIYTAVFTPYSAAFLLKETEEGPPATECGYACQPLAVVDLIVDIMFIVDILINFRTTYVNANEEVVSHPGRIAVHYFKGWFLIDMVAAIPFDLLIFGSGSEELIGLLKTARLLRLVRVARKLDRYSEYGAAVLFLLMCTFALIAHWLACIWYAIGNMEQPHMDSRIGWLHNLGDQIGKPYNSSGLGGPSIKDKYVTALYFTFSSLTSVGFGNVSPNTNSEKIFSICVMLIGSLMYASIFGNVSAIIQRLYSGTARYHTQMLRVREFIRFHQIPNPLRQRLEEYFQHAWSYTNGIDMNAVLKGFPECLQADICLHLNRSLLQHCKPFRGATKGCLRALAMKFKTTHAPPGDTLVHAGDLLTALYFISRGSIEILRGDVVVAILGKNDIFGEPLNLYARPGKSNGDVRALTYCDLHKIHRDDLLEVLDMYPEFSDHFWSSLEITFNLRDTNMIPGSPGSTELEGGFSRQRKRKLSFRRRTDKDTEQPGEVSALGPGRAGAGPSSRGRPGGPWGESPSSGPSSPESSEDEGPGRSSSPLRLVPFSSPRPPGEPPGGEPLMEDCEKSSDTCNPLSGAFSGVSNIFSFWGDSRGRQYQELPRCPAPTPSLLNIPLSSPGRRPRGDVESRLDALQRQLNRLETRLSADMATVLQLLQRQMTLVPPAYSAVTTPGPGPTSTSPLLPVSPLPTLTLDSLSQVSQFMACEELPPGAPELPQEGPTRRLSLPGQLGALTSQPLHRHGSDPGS

| SMILES | hERG current change (%, negative = inhibition) at 10uM [%] |
| --- | --- |
| O=C(Nc1ccc(N2CCOCC2)cc1)c1ccc(S(=O)(=O)NCc2ccco2)cc1 | 9.5 |
| CC(C)NCC(O)COc1ccc(CC(N)=O)cc1 (stereo not shown) | 24.2 |
| COc1cc2[nH]c(=S)n(Cc3ccc(C)o3)c(=O)c2cc1OC | 4 |
| CCN(CC)CC#CCC(C)(c1ccccc1)c1ccccc1.Cl | -54.8 |
| O=[N+]([O-])c1cccc(N/N=C/c2ccc(N3CCOCC3)cc2)c1 | 7.91 |
| O=C(CCCN1C(=O)c2cccc3cccc(c23)C1=O)NC1CCS(=O)(=O)C1 (stereo not shown) | -3.7 |
| CCOC(=O)c1c(NC(=O)CSc2nncs2)sc(C)c1C | 15.5 |
| Cc1sc2nc(CN(Cc3cccs3)C(=O)C3CC3)[nH]c(=O)c2c1C | -22.3 |
| COc1cccc(CN2CC(C(=O)NCCN3CCOC3=O)CCC2=O)c1 (stereo not shown) | 14.8 |
| O=C(CC1NCCN(Cc2ccccc2)C1=O)Nc1ccc(Cl)cc1 (stereo not shown) | 5.5 |
| COC(=O)CN1C(=S)N(c2ccc(OC)cc2)C(=O)C1CC(=O)Nc1ccc(F)cc1 (stereo not shown) | -24.6 |
| C[C@H]1CN=C(N(C)C)N1CCc1ccccc1 | 6.72 |
| CCOc1ccc(-c2c(C(=O)N/N=C/c3ccc(C)s3)nnn2-c2nonc2N)cc1 | 9.87 |
| O=C(c1ccco1)N1CCN(C(=O)c2cc3ccccc3oc2=O)CC1 | -13.2 |
| Cc1nonc1-c1nc(-c2nonc2N)n[nH]1 | 13.1 |
| Cc1cc(C(=O)O)ccc1-c1ccc(/C=N/n2cnnc2)o1 | 12.8 |
| CCOC(=O)C1=C(C)Nc2ccccc2N/C1=N\S(=O)(=O)c1cc(C(=O)O)ccc1Cl | 6.36 |
| O=C(CSc1nccn1-c1ccc(F)cc1)NCc1ccc(F)cc1 | -8.5 |
| COc1ccc(OCC(NS(=O)(=O)c2ccc(-n3cnnn3)cc2)C(C)C)cc1 (stereo not shown) | -52.2 |
| CCc1ccc(NC(=O)C(=O)NNC(=O)COc2cccc(OC)c2)cc1 | 0.332 |
| Nc1c(-c2ccccc2)c(CN2CCOCC2)nn1-c1cccc([N+](=O)[O-])c1 | -19.4 |
| CCOc1cc(C2C3=C(CC(C)(C)CC3=O)Nc3n[nH]c(C)c32)ccc1O (stereo not shown) | 15.5 |

| SMILES | hERG current change (%, negative = inhibition) at 10uM [%] |
| --- | --- |
| O=C(NCCc1ccccc1)C(=O)NCC1CCCN1S(=O)(=O)c1ccccc1 (stereo not shown) | -41.9 |
| Cc1ccccc1-n1c(=S)[nH]c2nc3c(cc2c1=O)COC(C)(C)C3 | 21.3 |
| CCc1ccc[n+](-c2[nH]c(=O)sc2/C=N/N=C(\[O-])c2ccncc2)c1 | 18.8 |
| NC(=O)CSc1ccc(F)cc1 | 44 |
| CC1CCN(Cc2c(C(=O)N/N=C/c3cccc(Cl)c3)nnn2-c2nonc2N)CC1 | 11.8 |
| CCOC(=O)C(C(C)=O)C(c1ccc(OCCC(C)C)cc1)C(C(C)=O)C(=O)OCC (stereo not shown) | -0.629 |
| CCCC(=O)Nc1cc(OCC)c(NC(=O)NC2CCCCC2)cc1OCC | 0.375 |
| O=C(CNS(=O)(=O)c1ccc(Cl)cc1)NC1CCCCC1 | -11 |
| CCOC(=O)N1CCN(C(=O)CN(c2cccc(OC)c2)S(C)(=O)=O)CC1 | -5.17 |
| CC1CCN(S(=O)(=O)c2ccc3ncn(CC(=O)N(C)C4CCCCC4)c(=O)c3c2)CC1 | -22.2 |
| O=C1C=C(NCc2ccco2)CC(c2ccc(Cl)cc2)C1 (stereo not shown) | -61.5 |
| Cc1ccccc1C(=O)Nc1cccc(NC(=O)c2ccc(-c3ccc(Br)cc3)o2)c1 | 16.7 |
| O=C(CC1(O)C(=O)N(Cc2ccc3c(c2)OCO3)c2ccccc21)c1ccccc1 (stereo not shown) | 8.9 |
| COC(=O)c1ccc(NC2(C#N)C(=O)Nc3ccccc32)cc1 (stereo not shown) | 21.9 |
| Fc1cccc(-n2ncc(-c3nnnn3-c3ccccc3)c2C(F)(F)F)c1 | -16.1 |
| O=C(NNC(=O)c1cccs1)Nc1cccc(Cl)c1 | 1.56 |
| Cl.O=C(CN1CCN(C2CCCCC2)CC1)Nc1cccc2ccccc12 | -31.2 |
| Br.O=C(CN1CCCCC1)c1ccccc1Cl | -3.23 |
| CN(C)S(=O)(=O)c1cccc(C(=O)N(Cc2ccc(F)cc2)Cc2ccco2)c1 | -52.3 |
| COc1ccc(C(CNC(=O)c2cccc(NS(=O)(=O)c3ccc(Br)cc3)c2)N(C)C)cc1 (stereo not shown) | -61.5 |
| COc1ccc(NC(=O)C2CCN(S(=O)(=O)c3cccc4nonc34)CC2)c(OC)c1 | 0.758 |
| COc1cc(OC)c(NC(=O)CCc2nc(-c3cccs3)no2)cc1Cl | 1.63 |

| SMILES | hERG current change (%, negative = inhibition) at 10uM [%] |
| --- | --- |
| O=C(CSc1nnc(-c2cccs2)n1Cc1ccccc1)NCc1ccc2c(c1)OCO2 | -75.8 |
| O=C(CN1C(=O)NC2(CCCC2)C1=O)OCCOc1ccc(Br)cc1 | -17.6 |
| NC(N)=N/N=C/c1cn(-c2ccccc2)nc1-c1cccs1.O=[N+]([O-])O | -62.1 |
| NS(=O)(=O)c1ccc(CNC(=S)NC2CCCCC2)cc1 | 7.06 |
| COc1cc(N2N=C(c3ccccc3)CC2c2ccccc2)c(C=O)cc1C=O (stereo not shown) | 20.5 |
| Cc1noc(C)c1CN(C(=S)NC(C)C)c1ccccc1 | 22.4 |
| CNS(=O)(=O)Cc1ccc2[nH]cc(CCN(C)C)c2c1 | 10.6 |
| COC(=O)[C@]1(CC(C)C)N[C@H](c2ccc(-c3ccc(F)cc3)c(OC)c2)[C@@H]2C(=O)N(C)C(=O)[C@@H]21.O=C(O)C(F)(F)F | -43.3 |
| O=C(CN1C(=O)c2ccccc2C1=O)N1CCN(S(=O)(=O)c2ccccc2)CC1 | -3.47 |
| CCc1nc(N2CCN(C(C)=O)CC2)c2c3c(sc2n1)CCCC3 | -20.1 |
| O=C(c1ccco1)N1CCN(S(=O)(=O)N2CCOCC2)CC1 | -1.91 |
| O=C(Oc1cncc(Cl)c1)c1sccc1Cl | -1.86 |
| Cc1ccc2c(c1)C(c1ccccc1)N(C(=O)c1ccc(S(=O)(=O)N3CCOCC3)cc1)CC(=O)N2 (stereo not shown) | -19.1 |
| CCCC(=O)N(C1CC(C)C(C#N)(C#N)C1(C#N)C#N)N(C)C (stereo not shown) | 3.69 |
| Cc1ccc(NC(=O)c2ccc(S(=O)(=O)Nc3c(C)n(C)n(-c4ccccc4)c3=O)cc2)nc1 | 6.9 |
| O=C(NN=C1CCC(c2ccccc2)CC1)c1cc2c(s1)CCCC2 (stereo not shown) | -0.679 |
| O=C(COc1ccc2c(C(F)(F)F)cc(=O)oc2c1)Nc1ccc2c(c1)OCCO2 | 2.49 |
| CC1Cn2c(nnc2-c2cccs2)S1 (stereo not shown) | 1.27 |
| CCOc1ccccc1C(=O)NCC(=O)OCCOc1cccc(Cl)c1 | -12.1 |
| C[C@@H](NC(=O)[C@@H]1Cc2ccccc2CN1C(=O)OC(C)(C)C)C(=O)NCc1ccco1 | 7.01 |
| Cc1cc(C)c(-c2cc(NC(=O)COC(=O)c3ccc(C#N)cc3)n(-c3ccccc3)n2)cc1C | -12.7 |
| O=C(CN1CCN(c2ccc(O)cc2)CC1)Nc1ccc2c(c1)OCCO2 | 2.24 |

| SMILES | hERG current change (%, negative = inhibition) at 10uM [%] |
| --- | --- |
| O=C(/C=C\Nc1ccc2c(c1)OCO2)c1cccs1 | 17.6 |
| Cc1noc(C)c1C(=O)OCC(=O)Nc1cccc(S(N)(=O)=O)c1 | 9.31 |
| COc1cc(OC)cc(-c2nnc(SCC(=O)Nc3cccc(C(=O)O)c3)s2)c1 | 5.77 |
| Clc1ccc(C2[C@H]3CN(CC4CCCCC4)[C@H](c4ccccc4)C34CC2(c2ccccc2)C4)cn1 (stereo partly shown) | 5.08 |
| O=C(CCCCCn1c(=O)[nH]c2ccsc2c1=O)N1CCCCC1 | -23.4 |
| COc1ccc(Cn2c(O)c(C=Nc3ccc(OC)cc3)c3ccccc3c2=O)cc1 | 2.23 |
| Cc1cc2cc3c(cc2nc1SCC(=O)N1CCN(C(=O)c2ccco2)CC1)OCO3 | -35.3 |
| COc1ccc(C(=O)N(C)CCCC2CCCC2)cc1OC1CCN(C(C)C)CC1 | -68.4 |
| CCOCCCNC(=S)Nc1ccc(Br)cc1Cl | 2.7 |
| CC(C)OP(=O)(OC(C)C)C(O)c1cccc([N+](=O)[O-])c1 (stereo not shown) | 1.7 |
| COc1ccc(/C=C/C(=O)c2ccc3c(c2)OCO3)cc1OC | -0.26 |
| N/C(=N\OC(=O)COc1ccc2ccccc2c1)c1ccccn1 | -1.39 |
| Cc1ccc(NC(=O)NCc2ccccn2)cc1 | 37.7 |
| COc1ccccc1C(=O)N1CCNC(=O)C1CC(=O)Nc1ccc(Cl)cc1 (stereo not shown) | 6.46 |
| CN(C)S(=O)(=O)c1ccc(N2CCCC2)c(C(=O)Nc2ccc(Br)cc2F)c1 | 3.03 |
| COc1cccc(NC(=O)Nc2cc(NC(=O)Nc3cccc(OC)c3)c(C)nc2C)c1 | 13.7 |
| CCCN(CC(=O)Nc1ccccc1C)C(=O)C1CCCN(C(=O)c2ccc(Cl)cc2)C1 (stereo not shown) | -35.1 |
| COc1ccc(Cn2nc(-c3ccccc3)c(N3CCCCC3)cc2=O)cc1 | -37.8 |
| CN(CC(=O)Nc1cccc(F)c1)C(=O)c1ccc(N2C(=O)c3ccccc3C2=O)cc1 | 2.22 |
